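A five-concentration, 48-hour dose response in 96-well plates underlies each endpoint, interpolated linearly between surrounding concentrations. At the GI50, growth is halved. TGI denotes the concentration required for complete inhibition of growth.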
Test system: NCI-H322M lung
Test: NCI anticancer screen, dose series, 48 h

Row | Compound | GI50 | TGI
1 | OC1CCN(CCCOc2c3ccccc3nc3c2oc2ccc(Cl)cc23)CC1 | 1.04 µM | 7.79 µM
2 | CN1CCc2c(sc3ncnc(N/N=C/c4ccc(Cl)c(Cl)c4)c23)C1 | 14.5 µM | 29.1 µM
3 | NS(=O)(=O)c1ccc(Nc2nc(N/N=C/c3ccccn3)nc(Nc3ccccc3)n2)cc1 | 0.461 µM | 3.92 µM

— PubChem BioAssay (NCI)
